Experimental data as given in publication PMC13233820, “Recruitment of Mre11 to recombination sites during meiosis” (Nature Communications, 2026).
Positions count from the first letter of the chain named. These are yes or no findings as the source states them, for the method shown. Binding seen in cells or lysates may run through a third protein. Some entries that bind do so weakly or less than the wild type. Tags and fused reporters may be left off the sequences shown.

Columns and labels:
Experiment in all cases: co-IP; meiotic SK1 cell extracts 4 h after transfer to SPM; anti-myc antibody and Dynabeads Protein G precipitate Mre11-myc; IP buffer 25 mM Tris-HCl pH 7.5, 150 mM NaCl, 1% Triton X-100, 5 mM EDTA, 0.1% sodium deoxycholate, benzonase; Mer2-iV5 detected by blot
[1] = molecular target: T1, myc-tagged Mre11 (MRE11-myc8) (S. cerevisiae (SK1)) (UniProt P32829)
T1 sequence: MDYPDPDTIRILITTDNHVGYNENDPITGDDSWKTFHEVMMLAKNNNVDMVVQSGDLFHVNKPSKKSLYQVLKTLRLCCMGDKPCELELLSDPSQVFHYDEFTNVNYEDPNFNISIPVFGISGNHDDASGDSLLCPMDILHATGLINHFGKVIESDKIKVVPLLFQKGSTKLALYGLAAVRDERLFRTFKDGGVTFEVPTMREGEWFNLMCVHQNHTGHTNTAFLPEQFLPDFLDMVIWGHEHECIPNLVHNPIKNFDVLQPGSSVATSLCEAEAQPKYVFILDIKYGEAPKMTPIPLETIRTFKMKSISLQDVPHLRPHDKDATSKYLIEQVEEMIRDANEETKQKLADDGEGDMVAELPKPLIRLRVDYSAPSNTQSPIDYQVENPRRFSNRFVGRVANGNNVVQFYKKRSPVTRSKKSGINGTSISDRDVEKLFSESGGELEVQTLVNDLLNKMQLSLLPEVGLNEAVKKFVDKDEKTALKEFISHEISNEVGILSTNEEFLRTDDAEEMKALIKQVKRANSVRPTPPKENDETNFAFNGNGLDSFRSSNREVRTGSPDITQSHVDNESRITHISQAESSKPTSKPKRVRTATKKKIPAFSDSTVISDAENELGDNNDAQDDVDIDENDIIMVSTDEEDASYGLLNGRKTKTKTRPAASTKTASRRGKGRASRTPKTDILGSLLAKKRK

[2] = molecular target: T2, myc-tagged Mre11 SIM3 mutant (mre11-SIM3) (S. cerevisiae (SK1)) (UniProt P32829)
T2 sequence: T1 sequence with I633A, I634A, M635A, V636A, S637A

[3] = molecular target: T3, myc-tagged Mre11 SIM3 mutant without the C-terminal 15 residues (mre11-SIM3+ΔC15) (S. cerevisiae (SK1)) (UniProt P32829)
T3 sequence: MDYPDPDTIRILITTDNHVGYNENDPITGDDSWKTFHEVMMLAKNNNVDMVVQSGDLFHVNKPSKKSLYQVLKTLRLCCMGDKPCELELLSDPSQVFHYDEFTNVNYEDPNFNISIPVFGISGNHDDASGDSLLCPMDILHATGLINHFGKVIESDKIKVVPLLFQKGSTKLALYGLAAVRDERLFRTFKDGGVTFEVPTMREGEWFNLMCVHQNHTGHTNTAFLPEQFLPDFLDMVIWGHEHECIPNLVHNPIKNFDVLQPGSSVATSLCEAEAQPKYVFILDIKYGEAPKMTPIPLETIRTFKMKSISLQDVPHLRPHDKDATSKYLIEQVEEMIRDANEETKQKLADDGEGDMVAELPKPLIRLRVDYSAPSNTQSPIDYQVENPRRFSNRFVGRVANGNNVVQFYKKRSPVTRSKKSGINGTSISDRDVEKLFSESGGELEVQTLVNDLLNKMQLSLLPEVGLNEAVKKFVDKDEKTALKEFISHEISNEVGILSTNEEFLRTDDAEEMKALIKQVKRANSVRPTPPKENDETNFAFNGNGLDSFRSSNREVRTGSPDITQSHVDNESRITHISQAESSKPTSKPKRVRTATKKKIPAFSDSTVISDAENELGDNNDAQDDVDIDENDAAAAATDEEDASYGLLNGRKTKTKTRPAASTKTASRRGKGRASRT

binding [1]: binds
binding [2]: binds
binding [3]: no binding
B1: V5-tagged Mer2 (Mer2-iV5) (protein, UniProt P21651 1-314)
chain: MVARGRTDEISTDVSEANSEHSLMITETSSPFRSIFSHSGKVANAGALEESDKQILEWAGKLELESMELRENSDKLIKVLNENSKTLCKSLNKFNQLLEQDAATNGNVKTLIKDLASQIENQLDKVSTAMLSKGDEKKTKSDSSYRQVLVEEISRYNSKITRHVTNKQHETEKSMRCTQEMLFNVGSQLEDVHKVLLSLSKDMHSLQTRQTALEMAFREKADHAYDRPDVSLNGTTLLHDMDEAHDKQRKKSVPPPRMMVTRSMKRRRSSSPTLSTSQNHNSEDNDDASHRLKRAARTIIPWEELRPDTLESEL
